Data from PubChem BioAssay AID1963576 (National Center for Advancing Translational Sciences (NCATS), 2024).
In all, about 46,000 compounds went through this assay and about 60 (0.1%) were called active. About 3% were inconclusive and are not listed. Calls follow the shape of the dose curve; as a rule, active = well fitted inhibition curve with a large enough effect; inconclusive = small, poorly fitted or top-dose-only effect; inactive = no such curve, though single readings can be large or run the other way. This is one part of the list.

Assay: Primary qHTS assay for Inhibitors of ovarian cancer metastasis using an organotypic tumor microenvironment (TME) model. Also: nearly all actives have a fitted effect of over 65% in size.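 As to activity change, negative = inhibition: plate controls were DMSO wells for no effect and tomatine positive control wells for full effect.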
Settings: SKOV3ip1-GFP adhesion/invasion on 3D omental model, fluorescence; series mostly up to 45.8 µM; activity change, negative = inhibition: at the top concentration
Outline: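 qHTS, 4-pt dose (0.36-46 umol/L); SKOV3ip1-GFP, 1,200 cells/well, no FBS; primary omental fibroblast/mesothelial co-culture 48 h pre-grown; 2 h RT + 16 h 37 C; PBS wash, 4% PFA; GFP count 488/509 nm.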

Activity change, negative = inhibition, inactive:
CCOC(=O)c1ccc(NC(=O)Cn2nc3c4ccccc4n(Cc4cccc(F)c4)cc-3c2=O)cc1 -1.85%
O=C(CCn1c(=O)c2sccc2n(Cc2ccccc2F)c1=O)NCc1ccc2c(c1)OCO2 -7%
Cc1cc(NC(=O)CCc2nc3cccnc3n2-c2ccccc2)ccc1Br -9.07%
COC(=O)Cn1c(C2CC(=O)N(c3c(C)cccc3C)C2)nc2ccccc21 (stereo unspecified) -2.02%
O=C(NCCc1ccccc1)c1ccc(CS(=O)Cc2ccc(Cl)cc2)o1 (stereo unspecified) 8.94%
COc1ccc(C(=O)c2c(N)c(-c3nc(-c4ccc5c(c4)OCO5)cs3)c3ccccn23)cc1 -7.77%
O=C(CCNS(=O)(=O)c1ccc2c(c1)CCCC(=O)N2)Nc1cccc(Cl)c1 4.51%
Cc1ccc(C)c(N2CCN(c3ncnc4c3nc3n4CCCC3)CC2)c1 -17.9%
Cc1ccccc1NC(=O)Cn1cc(C(=O)c2ccco2)c2ccccc21 11.4%
O=C1OCC2=C1C(c1cccc(Cl)c1)CC(=O)N2c1ccc(C(F)(F)F)cc1 (stereo unspecified) -9.92%
CCN(CC)c1ncnc2c1cnn2-c1cc(Cl)ccc1C -7.61%
COc1cc(C(CC(=O)Nc2ccc(C)c(F)c2)N2Cc3ccccc3C2=O)cc(OC)c1OC (stereo unspecified) 2.27%
COc1ccc(-c2nc(CNC(=O)NC3CCCCC3)c(C)o2)cc1 -7.15%
Cc1cccc(Cn2cc(S(=O)(=O)c3cccc(Cl)c3)c(=O)c3cc(F)c(N4CCOCC4)cc32)c1 2.66%
CCOC(=O)c1c(C)[nH]c(C)c1S(=O)(=O)N(C)CC(=O)Nc1ccc(OC)cc1 4.1%
CCn1c(-c2nonc2N)nc2c(C#CC(C)(C)O)ncc(OC[C@H]3CCCNC3)c21 18.3%
COc1ccc(OC)c(CNC(=O)c2ccc(N3Cc4ccccc4Oc4ncccc43)s2)c1 4.64%
Cc1ccc(NC(=O)Cn2nc(-c3ccccc3)nc(Cc3ccc(Cl)cc3)c2=O)cc1 -3.08%
COc1cc(C2Nc3ccccc3-c3cc(C)nn32)ccc1O (stereo unspecified) -9.65%
COc1cccc(CNC(=O)c2cc3c(-c4ccccc4F)nn(C)c3s2)c1 0.589%
CCOC(=O)c1cccc(NC(=O)CCSCCc2ccccn2)c1 -2.12%
Cc1noc(-c2ccc(-c3noc(-c4ccc(F)cc4)n3)cc2)n1 -0.0465%
CCN(CC)CCOc1ccc(Nc2ncc3cc(-c4c(Cl)cccc4Cl)c(=O)n(C)c3n2)cc1 -24.8%
O=S(=O)(c1ccc(Br)s1)N1CCN(c2cccc(C(F)(F)F)c2)CC1 -1.58%
O=C(NCCc1ccc(Cl)cc1)c1c2c(nc3ccccc13)C(=O)N(C1CCCCC1)C2 -1.06%
CC1CCN(CC2CCN(C(=O)NCc3ccccc3)CC2)CC1 -10.3%
CCCCCCn1nnc2sc(-c3ccccc3)cc2c1=O -8.92%
Cc1ccccc1C(=O)Nc1cc(C)c(O)c(-c2nc3ccccc3o2)c1 9.46%
CC1(C)O[C@H]2C[C@@H]3[C@H]4CCC5=CC(=O)C=C[C@]5(C)[C@@]4(F)[C@@H](O)C[C@]3(C)[C@]2(C(=O)CO)O1 23.4%
COc1ccc(CNC(=O)CCNS(=O)(=O)c2ccc3c(c2)oc(=O)n3C)cc1 -15.7%
CCn1cc(C(=O)N(C)Cc2ccccc2)c(=O)c2cc(S(=O)(=O)N3CCc4ccccc4C3)ccc21 0.395%
COc1ccc(C2CC(=O)c3cc(-c4nc(-c5cccc([N+](=O)[O-])c5)cs4)c(=O)n(-c4ccccc4)c3C2)cc1 (stereo unspecified) -7.26%
COc1cc(C)ccc1OCCSc1nc2ccc(NC(=O)c3ccco3)cc2s1 3.82%
Cc1nn(C)c(C)c1S(=O)(=O)N(CC(=O)NCCc1ccccc1)c1ccc(C(C)C)cc1 2.58%
CC(=NNC(=S)N1CCC1)c1ccccn1 -4.39%
COc1cccc(C(=O)NCC2OCCc3ccccc32)c1 (stereo unspecified) 10.8%
COc1ccc(NC(=O)c2ccco2)cc1NC(=O)COc1ccc(C)c(C)c1 -6.94%
Cc1cccc(N2C(=O)CC(c3ccc(F)cc3)C3=C2COC3=O)c1 (stereo unspecified) -4.53%
CCCNC(=O)[C@H]1O[C@H]1C(=O)N[C@H](C(=O)N1CCC[C@@H]1C(=O)OC)C(C)CC (stereo partly specified) -12%
Cc1cc2c(cc1S(=O)(=O)NCc1ccc(F)cc1)n(C)c(=O)c(=O)n2C -3.38%
O=C(CSCc1ccc(F)cc1)N1CCN(c2ccccc2F)CC1 1.69%
CCCCNC(=O)c1nn(C)c2c1CSc1ccccc1-2 -5.06%
Cc1cn2c(=O)cc(COC(=O)c3ccc(NC(=O)COc4ccccc4C)cc3)nc2s1 -4.5%
Cc1ccc(-c2nn3c(-c4ccccc4C)nnc3c3ccccc23)cc1 -20.4%

outcome, inactive:
O=S(=O)(c1ccc(C2CCCCC2)cc1)N1CCN(c2ccc(Cl)c(Cl)c2)CC1
O=C(Nc1ccc(F)cc1F)C1CCN(c2ncccn2)CC1
CCOc1ccccc1NC(=O)C1CCN(S(=O)(=O)c2c(C)noc2/C=C/c2ccco2)CC1
COc1ccc(CC(=O)Nc2c(C(=O)N3CCN(c4ccccc4)CC3)oc3ccccc23)cc1OC
Cn1c(=O)c2nc(SCC(=O)Nc3ccc(OC(F)(F)F)cc3)n(C)c2n(C)c1=O
CC1CCCN(CCCNC(=O)c2cc(Sc3ccc(F)cc3)nc3ccccc23)C1 (stereo unspecified)
O=C(CCn1c(=O)c2ccccc2n(CC(=O)Nc2cccc(F)c2)c1=O)NCCc1ccccc1
COc1cc(OC)cc(-c2cc3nc(C)c(CCC(=O)NCCc4cccc(C)c4)c(C)n3n2)c1
COc1cc(NC(=O)Cn2nc(C(F)(F)F)c3c2CCC3)cc(OC)c1OC
COCCn1c(SCC(=O)Nc2cc(Cl)ccc2OC)nc2c([nH]c3ccccc32)c1=O
CCOc1ccc(-c2nc(Cn3c(=O)cc(C)c4c(C)nn(-c5ccccc5)c43)c(C)o2)cc1
CCC1CN(C(=O)Nc2ccccc2F)c2cc(C)ccc2O1 (stereo unspecified)
CCN1c2ccccc2-c2nc(SCC(=O)Nc3cccc(C)c3C)ncc2S1(=O)=O
O=C(NCCc1ccccc1)c1ccc2c(c1)N(Cc1ccc(Cl)cc1)C(=O)CS2
CCc1ccc(NC(=O)CSc2ccnc(=O)[nH]2)cc1
Cc1ccc(C(=O)c2cn(Cc3cccc(Cl)c3)c3nc(C)ccc3c2=O)cc1
CCOC(=O)c1cc(-c2ccccc2)n(-c2cccc(C(=O)Nc3cccc(SC)c3)c2)c1C
